In the RNAGym collection of RNA variant scans (doi:10.7554/elife.90254):
Read counts are not given, so values of variants with three or more changes are uncertain.

B1: LINE1-full (parent)
chain: UACGUAGGUGGUUUUCCCCUGAUAGUGCUAAGGGGGCCUGGAAGUUUGGACUGGGCAGAGCUCAACACAGCGUGGCAAAGUGGCUGUGGCUAGACUGCCUCUCUGGAUUCCUCGUCACUCAGCAGGGCAUCUCUGAGAGAAAUGCC

Variants of: B1
Assay: self-cleavage, relative activity (ratio to wild type); higher = more cleavage; in vitro, sequencing; the parent is a self-cleaving ribozyme

Variant	self-cleavage
U9C G83A U119C	1.46
U9C U52C C71U A138U A140G	0.47
U9C U39C A69U	0.51
U9C U15A U112C	1.16
U9C U96A C118U	0.06
U9C U47C U104A	1.59
U9C U109C A136G	2.52
U9C U15C G49U A50U A79G A136U	0.85
U9C C113A U134C	1.97
U9C U47A A65G A117G U134G	0.24
U9C U46C A94G A124G	1.15
U9C U81A A124G A141G A142G U143C	0
U9C G72A A124G	0.9
U9C G32A G48A A69G	0.37
U9C G34A A64G U102C A142G	0.27
U9C U108C C131A	1.08
U9C U15C G74A U119C A142C	1.22
U9C A77G A129G	1.41
U9C U39A U96C	0.4
U9C U47A A57G U119C U134C A138G	0.66
U9C U45A A50G G93A	0.03
U9C U29C G34A A94G	0.34
U9C U39G U115A A138G	0.77
U9C U73A A107G A142G	2.72

Variant	self-cleavage
U9C U100C A138U	1.13
U9C U29A U45G U96A	0
U9G A78U A138G	2.78
U9C A94G U115C	0
U9C C90U U143C	0.07
U9C G35A C66A U112C	0.06
U9C G53U A67G A141U A142G	0.39
U9C U26C G114A	1.04
U9C G41A A117U	1.36
U9C G55A A121G	0.7
U9C G33U U47C G72A	1.45
U9C U20A U47C	1.36
U9C A94G A138G	1.27
U9C U45C U62C U87A	0.34
U9C U15A U96C	0.49
U9C U26A A57U U96A	0.6
U9C U15C A92U U130C	0.41
U9C A78C U108C	2.92
U9C G35A U47A U102C A142G	1.1
U9C U12A A77G C99U A107G U119C	2.63
U9C U45C A77G A79G	0
U9C U85C C95U	0.22
U9C A79G C146A	1.71
U9C G80A U143A	1.41

Variant	self-cleavage
U9C U15C U119C U130C	1.53
U9C U91A A141G	0
U9C G82U U96C A117G	0.3
U9C U47C A94G U132C	1.23
U9G A59C A64U U134C	0.75
U9C C37U U130A	1.17
U9C C76A A79G	1.18
U9C U15C A117G	0.9
U9C A79G G122A	1
U9C U62C A77G A142G	0.24
U9G A43G A142G	0.57
U9C U12C U102C A136G	1.02
U9C U29A A117G	1.17
U9C U108C U112C	1.1
U9C A69U U104A	0
U9C G114A U115C	1.49
U9C U62C U109C	0
U9C U23C A59U U102C A117C	0
U9C C37U A43G G137U A138G	1.94
U9C U45C A59G	0.53
U9C U13A U62A U73C	0.16
U9C C17U U39C A121G	0
U9C U73G A77U	2.07
U9C C61U A94U	0.02

Variant	self-cleavage
U9C U46C U52A	0.92
U9C C37A A42G U47A	1.15
U9C U100C U143A	1.84
U9C G83A A129U	1.29
U9C U52G G105A	1.69
U9G A31G G34A A107U A124G	1.58
U9C U73A A124G	1.4
U9C C17A A31U	0.95
U9C U109A A136G A142G	1.19
U9C U87C A140G	0.33
U9C U14C U100C	1.41
U9C G48A A77U U91A A94U A117G U119C	0.11
U9G G10A U13C	1.35
U9C U13C G54A	0.62
U9G U14C U15A A42G	1.24
U9C U39A A65G U85A U104A U115C	0
U9C G40A A79G A94U	0.28
U9C A77G A92U U134C	0.61
U9C U29C A141G	2.3
U9C U112A A140G	0.85
U9C U15A A43U A141G	1.07
U9C U15C A50G A141G	1.19
U9C U96C U112A U119C	0
U9C U14C U102C U132C	0.54

Variant	self-cleavage
U9G G72A U81C U100C A141G	1.51
U9C U12C C19U U108C U130C	1.67
U9G C19U G32A U102A	0.68
U9C A78G U104C G127A	1.13
U9C U13G U14A U143C	0.69
U9C A136G A141G	0.99
U9C G48A U108C	0.38
U9C C38U G137A A140G A142C	0.54
U9C C38U G82A U119C A141G	2.3
U9C U45A U119C A141G	1.87
U9C G36U A129U A138G	1.61
U9C U100A U115C	1.29
U9C G11U U14C G34U U108C U119C	2.12
U9C U14C G114A	1.15
U9C U109A A142G	0.97
U9G A24G G89A U130A	0.05
U9C U52C U91G	0
U9C A78G U87C U100C C113U U130C A138G	0
U9G G105U A129G	1.14
U9C U23C A50G G106A	1.41
U9C U12G A136U	1.28
U9G A77G A78G A142G	0
U9C C19A U29C	0.7
U9C U39C A65C A140C	0.28

Variant	self-cleavage
U9C U39A A140G	1.21
U9C U52A A57G U100A U109C	0.3
U9C A78G G125U U130C	1.6
U9C G34U A117G	1.61
U9C U14A C95U A117U U134C	0.17
U9C U119A A140G	0.4
U9C A78U G83A	1.5
U9C U23A A92G	0
U9C U85C A92G A121U U132C A138U	0
U9C U12G A94G U102C C116U A140G	0.48
U9C U46C U112A	1.04
U9C U62C U91G U112C	0
U9C C19U U52C U119A A121G	1.31
U9C U20C G127A U132C	0.75
U9C U47C U91C A94U A142G	0
U9C G40A A77C U134C	0.49
U9G A50G G86A	0.43
U9C U62C A124G G127A	0
U9C U15C U45C	1.48
U9C U104C G144U	1.47
U9C U12C C66U	0.31
U9C U46C A138G	1.45
U9C U13A U15C A24U C61G	0
U9C A92U U143C	1.65

Variant	self-cleavage
U9C U15C G33U A94G	1.08
U9C U46C A57G U100C U130C U134A	0
U9C A121U A136G	0.93
U9C G53A A59U U96C	0.18
U9G U14C C68U U104A	0
U9G U14C A78U A138G	1.77
U9C U20C A31G G60A	0.13
U9C U47A U102C	1.48
U9C A79G C98A	0.13
U9C U91C A138G	0.71
U9C A121U A142G	1.19
U9C U132C U143G	0.42
U9C U100C G125U	1.87
U9C G32A G41A A59G U104C U115C A129U	0.19
U9C A69G U132C A142G	0.19
U9C U62C U119C	0
U9C U26C A78G A94G	1.67
U9C U13A A69G U104C	0
U9C G36C A42G A117U A136U	1.44
U9C U13A G36C A78G U119C C131G	0.15
U9C U91C A92U A141G	1.06
U9C U109C U134C	0.75
U9C U13C G35A A64G G88A C146U	0.08
